Among all 350,000 compounds or so, about 31,000 (8.9%) were called active. Inconclusive means that the source gave no clear call. Such entries were picked first, then a sample of the others. Calls come from the whole dose curve; as a rule, active = well fitted inhibition curve with a large enough effect; inconclusive = small, poorly fitted or top-dose-only effect; inactive = no such curve, though single readings can be large or run the other way. Potencies of inconclusive entries are doubtful fits and often do not repeat.
target: Histone-lysine N-methyltransferase EHMT2 (Homo sapiens) (UniProt Q96KQ7); test: qHTS Assay for Inhibitors of Histone Lysine Methyltransferase G9a; conditions: G9a H3K9 monomethylation, AlphaScreen, 2 h; activity, negative = inhibition: at 59 µM (top of the series) unless noted; note: nearly all actives have a fitted effect of over 75% in size
UniProt Q96KQ7, sequence (Q96KQ7 whole entry, looked up): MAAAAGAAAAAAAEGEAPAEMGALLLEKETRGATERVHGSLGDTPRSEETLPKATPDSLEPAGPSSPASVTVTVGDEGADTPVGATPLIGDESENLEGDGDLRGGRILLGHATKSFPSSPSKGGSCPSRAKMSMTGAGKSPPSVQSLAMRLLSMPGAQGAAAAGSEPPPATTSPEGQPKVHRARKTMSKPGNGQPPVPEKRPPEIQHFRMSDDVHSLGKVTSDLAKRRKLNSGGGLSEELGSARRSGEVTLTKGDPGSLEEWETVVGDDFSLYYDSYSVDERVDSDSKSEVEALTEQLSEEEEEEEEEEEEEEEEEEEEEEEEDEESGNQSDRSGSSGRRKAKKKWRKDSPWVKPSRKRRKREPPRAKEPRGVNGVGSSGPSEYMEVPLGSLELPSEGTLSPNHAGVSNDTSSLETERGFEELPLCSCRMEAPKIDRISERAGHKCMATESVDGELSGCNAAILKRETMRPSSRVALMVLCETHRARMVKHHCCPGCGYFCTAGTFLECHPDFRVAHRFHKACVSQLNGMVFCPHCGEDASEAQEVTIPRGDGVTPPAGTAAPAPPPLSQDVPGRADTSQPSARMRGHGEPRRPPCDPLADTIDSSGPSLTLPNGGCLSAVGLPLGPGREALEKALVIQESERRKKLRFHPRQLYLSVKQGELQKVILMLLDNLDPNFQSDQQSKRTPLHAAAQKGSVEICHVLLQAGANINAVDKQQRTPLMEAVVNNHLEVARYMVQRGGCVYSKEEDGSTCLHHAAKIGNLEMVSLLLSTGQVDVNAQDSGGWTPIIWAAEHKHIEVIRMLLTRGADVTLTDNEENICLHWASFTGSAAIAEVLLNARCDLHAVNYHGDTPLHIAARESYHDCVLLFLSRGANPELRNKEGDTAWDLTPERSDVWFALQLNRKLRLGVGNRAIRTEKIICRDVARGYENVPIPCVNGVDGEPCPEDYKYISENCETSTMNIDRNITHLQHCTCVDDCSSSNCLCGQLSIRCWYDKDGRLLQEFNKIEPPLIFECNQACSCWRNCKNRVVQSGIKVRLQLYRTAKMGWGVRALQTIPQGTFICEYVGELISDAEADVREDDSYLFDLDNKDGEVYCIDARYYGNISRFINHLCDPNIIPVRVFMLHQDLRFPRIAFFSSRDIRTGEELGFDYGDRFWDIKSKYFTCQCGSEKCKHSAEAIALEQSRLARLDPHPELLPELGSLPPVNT
Procedure, shortened: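 Methyltransferase reactions run at room temperature for 2 h (20 nM enzyme, 500 nM biotin-H3K9 peptide, 20 uM SAM) after a 15 min compound preincubation; product detected by AlphaScreen beads and anti-H3K9me1 antibody.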
% is set by controls: 0 for no effect and ±100 for the full control effect; potency is the fitted concentration of half-maximal effect; tags give direction and shape of the fitted curve.

| Structure (SMILES) | Potency | activity, negative = inhibition |
| --- | --- | --- |
| CC1(NC(=O)CCNC(=O)c2ccc(C(C)(C)C)cc2)CCS(=O)(=O)C1 (stereo not given) | inconclusive: 3.55 µM [inhibitor, single point] | – |
| CCCCC12CN3CC(C)(CN(C1)C3c1c[nH]c3ccccc13)C2=O (stereo not given) | inconclusive: 22.4 µM [inhibitor, partial curve, poor fit] | – |
| CC(=O)N1CCc2cc(S(=O)(=O)CCC(=O)N3CCN(c4ccccn4)CC3)ccc21 | – | inactive: -6% |
| CCOC(=O)c1c(-c2ccc(C)o2)csc1NC(=S)NC(=O)N(C)C | inconclusive: 70.8 µM [inhibitor, partial curve, poor fit] | – |
| O=[N+]([O-])c1ccc(-c2nc(C(Cl)Cl)c3ccccc3n2)cc1 | active: 22.4 µM | – |
| CN1CCN(C(=O)c2cc3ccccc3cc2O)CC1 | inconclusive: 2 µM [inhibitor, partial curve, poor fit] | – |
| COCc1cc(C)n(CC(=O)Nc2ccccc2OC)c(=O)c1C#N | – | inactive: 2.36% [at 102 µM] |
| CC1CCCN(c2nc3c(c(=O)[nH]c(=O)n3C)n2CCCc2ccccc2)C1 (stereo not given) | inconclusive: 56.2 µM [inhibitor, partial curve] | – |
| CCOC(=O)C(C)(C)N(Cc1ccc(Cl)cc1)S(=O)(=O)c1ccc(Cl)c([N+](=O)[O-])c1 | inconclusive: 70.8 µM [inhibitor, single point] | – |
| CCc1cc2c(cc3c(=O)n(CCCC(=O)NCc4cccc(Br)c4)ncn32)s1 | – | inactive: -4.55% |
| CC1=C(C(=O)Nc2cccnc2)C(c2ccc(C)cc2)n2nc(SCc3ccccc3F)nc2N1 (stereo not given) | – | inactive: -35% |
| COC(=O)c1ccc(Nc2ncnc3sccc23)cc1 | inconclusive: 79.4 µM [inhibitor, single point] | – |
| O=c1c2ccccc2c(C=NC2CCS(=O)(=O)C2)c(O)n1-c1ccccc1 (stereo not given) | – | inactive: 9.53% |
| NC(=O)c1ccc(NC(=O)CSc2nc3ccccc3c(=O)n2CCCN2CCOCC2)cc1 | – | inactive: 16.3% [at 12.7 µM] |
| CCC(=O)Oc1ccc(C(=O)Nc2ccc3c(c2)OCO3)cc1 | inconclusive: 0.251 µM [inhibitor, partial curve, poor fit] | – |
| CCOC(=O)Cn1nc(-c2ccccc2)c2cnc3ccc(C)cc3c21 | active: 56.2 µM | – |
| CCCN(C(=O)COC(=O)Cn1c(=O)oc2ccccc21)c1c(N)n(Cc2ccccc2)c(=O)[nH]c1=O | – | inactive: 11.7% [at 2.33 µM] |
| CN(C)c1ccc(NC(=O)Cn2c(SCc3ccc(F)cc3)nc3ccncc32)cc1 | active: 6.31 µM | – |
| CN(C)CCCN(C(=O)c1ccc2c(c1)CCCC2)c1nc2ccc(Cl)cc2s1 | inconclusive: 28.2 µM [inhibitor, single point] | – |
| Cc1cc(Nc2ccc3c(c2)OCCO3)n2ncnc2n1 | inconclusive: 89.1 µM [inhibitor, single point] | – |
| FC(F)(F)c1ccc(Cl)c(N/N=C/c2ccc(N3CCOCC3)s2)c1 | active: 3.98 µM | – |
| COc1ccc(NC(=O)C(C)N(C)Cc2ccc3ccccc3c2)cc1 (stereo not given) | – | inactive: -9.5% [at 102 µM] |
| Cc1nc2cc(C(=O)OCC(=O)Nc3cccc(Cl)c3)ccc2n1-c1ccccc1 | active: 50.1 µM | – |

| Structure (SMILES) | Potency | activity, negative = inhibition |
| --- | --- | --- |
| O=C(CCCCl)NC(=S)Nc1ccc(CN2CCOCC2)cc1 | active: 50.1 µM | – |
| COCC1CCN(Cc2cn[nH]c2-c2ccc(OC)cc2F)C1 (stereo not given) | – | inactive: 22.9% [at 102 µM] |
| Cc1ccn(CC(=O)N2CCCC(C(=O)c3cccc4ccccc34)C2)n1 (stereo not given) | inconclusive: 6.31 µM [inhibitor, partial curve, poor fit] | – |
| Cc1ccc(-n2ncc(C(=O)NCc3ccc4c(c3)OCO4)c2C2CCN(C(=O)OC(C)(C)C)CC2)c(C)c1 | – | inactive: -29.3% |
| NC(=O)CC(NC(=O)Cc1ccc(Cl)cc1)c1ccc(NC2CCN(Cc3ccccc3)CC2)c([N+](=O)[O-])c1 (stereo not given) | inconclusive: 56.2 µM [inhibitor, single point] | – |
| CCCCN(C(=O)c1ccc(N2C(=O)c3ccccc3C2=O)cc1)c1c(N)n(CC(C)C)c(=O)[nH]c1=O | inconclusive: 89.1 µM [inhibitor, partial curve, poor fit] | – |
| COc1ccc(-c2nc3c(c(SCc4ccc(Br)cc4)n2)Cc2c(CO)cnc(C)c2O3)cc1 | – | inactive: -9.29% |
| O=C(c1ccc2c(c1)C(=O)N(Cc1ccco1)C2O)N1CCOCC1 (stereo not given) | inconclusive: 31.6 µM [inhibitor, single point] | – |
| CC(=O)c1cccc(NC(=O)NCc2ccco2)c1 | inconclusive: 12.6 µM [inhibitor, partial curve] | – |
| CC(C)=NNc1nc(-c2ccc([N+](=O)[O-])cc2)cs1 | – | inconclusive: -69.7% [inhibitor] |
| Cc1oc2cc3oc(=O)c(CCC(=O)NCCc4ccccc4F)c(C)c3cc2c1C | – | inactive: 2.61% |
| O=C(Cc1coc2cc3c(cc12)CCC3)NCC1(N2CCCCC2)CCCCC1 | inconclusive: 79.4 µM [inhibitor, partial curve, poor fit] | – |
| Cc1ccc(C(=O)COC(=O)CCC(=O)Nc2ccc(Oc3ccccc3)cc2)cc1 | – | inactive: -1.37% |
| S=C(NCc1ccco1)NC1CCCc2ccccc21 (stereo not given) | inconclusive: 50.1 µM [inhibitor, partial curve, poor fit] | – |
| CN(CCO)CC(O)Cn1cnc2c1c(=O)n(C)c(=O)n2C (stereo not given) (tested in a mixture with another compound) | inconclusive: 39.8 µM [inhibitor, partial curve, poor fit] | – |
| CCC1(C(=O)OC)NC(c2ccco2)C2C(=O)N(c3ccccc3)C(=O)C21 (stereo not given) | – | inactive: 9.5% |
| COCCn1c(=O)c(-c2cccs2)nc2cnc(OC)nc21 | – | inactive: 19.1% [at 0.501 µM] |
| O=C(CCCn1c(=S)[nH]c2ccsc2c1=O)Nc1ccc2c(c1)OCCO2 | active: 3.55 µM | – |
| Cc1ccc(-c2cnc(-c3ccncc3)o2)cc1 | inconclusive: 1.26 µM [inhibitor, full curve, poor fit] | – |
| Cc1cc(C)cc(N(CC(=O)NCCc2ccc(Cl)cc2)S(=O)(=O)c2c(C)noc2C)c1 | – | inactive: 1.28% |
| CS(=O)(=O)c1ccc(Cl)c(C(=O)O)c1 | inconclusive: 31.6 µM [inhibitor, single point] | – |
| CC(C)(C)OC(=O)N1CCN(C(=O)Cn2cc(CCO)nn2)CC1 | – | inactive: 12.6% |

Reference: PubChem BioAssay AID504332 (National Center for Advancing Translational Sciences (NCATS), 2011)
